The text below walks through data of article PMC5540273 (PLoS ONE, 2017).

Some test systems named below: NEK9; NLK; PAK1; PAK2; PAK3; PAK4; PAK6; PAK7; PDGFRA; PDGFRB; PDPK1; PFTAIRE2; PHKG1.
Common to all, as to settings: concentration: 1 μM,replicates: in singlicate; n = 1
A further assay relates to T1, NIK.
T1 construct: gene MAP3K14

Another assay deals with T2, NIM1.
T2 construct: gene MGC42105

The subject of another assay is T3, OSR1.
T3 construct: gene OXSR1

Another assay deals with T4, PCTK1.
T4 construct: gene CDK16

The next assay relates to T5, PCTK2.
T5 construct: gene CDK17

Another assay relates to T6, PCTK3.
T6 construct: gene CDK18

In a further assay the test system is T7, PFTK1.
T7 construct: gene CDK14

Structures are written as SMILES. For part of these data: Shown are results outside the selection of strong results, which stands elsewhere. The list shows a part of the results, in another mix than the full data.
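Further: KINOMEscan kinase panel screen.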

Regarding `O=C1NC(=O)C(c2ccccc2Cl)=C1Nc1cccc(C(=O)O)c1` [SB-390526], the “%Inh” value in the assay on NEK9 came to 26%; with NIK it was 0%; in the assay with NIM1, 7%; in the assay on NLK it was 0%; in the assay on OSR1, 34%; in the assay on PAK1, 0%. For the same molecule, the “%Inh” value in the assay on PAK2, in the assay on PAK3, in the assay with PAK4, in the assay on PAK6, with PAK7 and in the assay on PCTK1 was 0% throughout. In addition, the “%Inh” value came out at 12% with PCTK2; 8% in the assay on PCTK3; 13% in the assay with PDGFRA; 6% with PDGFRB; 0% in the assay on PDPK1; 17% with PFTAIRE2. Besides, the “%Inh” value with PFTK1 amounted to 11%; in the assay with PHKG1 it was 0%.
As for `CSc1ccc(NC2=C(c3cccc(Cl)c3)C(=O)NC2=O)cc1` [SB-341528], the “%Inh” value with NEK9, with NIK, in the assay with NIM1, in the assay on NLK, with OSR1 and in the assay with PAK1 was 0% in each case. The “%Inh” value in the assay with PAK2 was 30%; in the assay with PAK3, 1%; with PAK4 it was 0%; with PAK6 it was 0%; with PAK7, 2%; with PCTK1, 0%. Also, the “%Inh” value came to 3% with PCTK2; 13% in the assay with PCTK3; 2% in the assay on PDGFRA; 1% in the assay on PDGFRB; 4% in the assay on PDPK1; 0% with PFTAIRE2. Besides, the results for the “%Inh” value with PFTK1 and with PHKG1 were 0% and 8%, respectively.
Turning to `O=C1NC(=O)C(c2ccc(Cl)cc2)=C1Nc1ccc(O)c(Cl)c1` [SB-405367], the “%Inh” value in the assay with NEK9 was found to be 0%; with NIK, 0%; in the assay on NIM1, 0%; with NLK, 0%; with OSR1, 5%; in the assay with PAK1, 1%. Further, the “%Inh” value with PAK2 stood at 15%; with PAK3, 0%; in the assay with PAK4, 0%; with PAK6, 5%; in the assay on PAK7, 0%; in the assay on PCTK1, 0%. Further, the “%Inh” value with PCTK2 worked out at 89%; with PCTK3, 0%; with PDGFRA it was 0%; with PDGFRB it was 0%; with PDPK1, 26%; in the assay with PFTAIRE2 it was 0%. Moreover, the “%Inh” value with PFTK1 stood at 0%; in the assay on PHKG1, 7%.
In the case of `O=C1NC(=O)C(c2ccc(Cl)cc2)=C1Nc1cccc(C(=O)O)c1` [SB-360737], the “%Inh” value in the assay on NEK9 stood at 0%; in the assay on NIK, 0%; in the assay on NIM1 it was 25%; in the assay with NLK, 25%; with OSR1 it was 7%; in the assay on PAK1, 4%. Also, the “%Inh” value with PAK2 is on record as 0%; in the assay with PAK3 it was 11%; in the assay on PAK4, 0%; in the assay on PAK6, 0%; in the assay with PAK7 it was 0%; in the assay on PCTK1, 8%. Besides, the “%Inh” value with PCTK2 was 0%; in the assay on PCTK3 it was 0%; in the assay with PDGFRA it was 6%; with PDGFRB, 0%; in the assay with PDPK1, 0%; in the assay on PFTAIRE2, 13%. The “%Inh” value in the assay with PFTK1 and in the assay with PHKG1 was 0% each time.
As for `O=C1NC(=O)C(c2ccccc2)=C1Nc1cc(Cl)c(O)c(Cl)c1` [SB-390530], the “%Inh” value in the assay on NEK9 turned out to be 0%; in the assay with NIK it was 22%; in the assay with NIM1, 0%; in the assay on NLK, 0%; with OSR1 it was 0%; with PAK1, 0%. Also, the “%Inh” value is 11% in the assay with PAK2; 0% in the assay with PAK3; 4% in the assay on PAK4; 0% with PAK6; 0% in the assay on PAK7; 0% in the assay on PCTK1. Further, the “%Inh” value in the assay on PCTK2 is reported as 0%; in the assay with PCTK3 it was 16%; in the assay on PDGFRA, 21%; in the assay on PDGFRB it was 3%; in the assay on PDPK1, 0%; with PFTAIRE2 it was 0%. Moreover, the “%Inh” value was 10% in the assay on PFTK1 and 0% with PHKG1.
On to `COc1ccc(C2=C(Nc3cccc(Cl)c3)C(=O)NC2=O)cc1` [SB-326892], for which the “%Inh” value with NEK9 is 0%; with NIK, 32%; in the assay on NIM1, 16%; with NLK it was 0%; in the assay with OSR1, 0%; in the assay with PAK1, 0%. In addition, the “%Inh” value is given as 10% with PAK2; 22% in the assay with PAK3; 0% in the assay with PAK4; 0% in the assay on PAK6; 2% in the assay on PAK7; 0% with PCTK1. Also, the “%Inh” value in the assay with PCTK2 came to 2%; in the assay with PCTK3, 0%; in the assay with PDGFRA, 0%; in the assay on PDGFRB it was 9%; in the assay on PDPK1 it was 0%; with PFTAIRE2 it was 0%. For the same molecule, the “%Inh” value in the assay on PFTK1 and in the assay with PHKG1 was 0% each time.
As to `O=C1NC(=O)c2c1c(-c1ccccc1)cc1[nH]c3ccc(O)cc3c21`, the “%Inh” value with NEK9 came to 22%; with NIK, 24%; in the assay on NIM1, 96.1%; in the assay on NLK, 8%; in the assay on OSR1 it was 20%; in the assay on PAK1 it was 1%. In addition, the “%Inh” value in the assay on PAK2 was 21%; in the assay with PAK3 it was 74%; in the assay with PAK4, 12%; in the assay on PAK6 it was 2%; in the assay on PAK7, 0%; in the assay with PCTK1, 29%. Further, the “%Inh” value was 4% in the assay on PCTK2; 28% with PCTK3; 49% in the assay on PDGFRA; 90.7% with PDPK1; 9% with PFTAIRE2; 12% with PFTK1. In the assay on PHKG1, the “%Inh” value was 53%.
As to `Cc1ccc(C)c(Oc2nccc(-c3c(-c4ccc(F)cc4)ncn3C3CCNCC3)n2)c1.O=C(O)C(F)(F)F.O=C(O)C(F)(F)F.O=C(O)C(F)(F)F` [SB-284852], the “%Inh” value is recorded as 0% with NEK9; 0% with NIK; 0% with NIM1; 49% with NLK; 0% in the assay with OSR1; 0% in the assay with PAK1. The “%Inh” value was 2% in the assay on PAK2; 0% with PAK3; 0% with PAK4; 2% in the assay with PAK6; 0% in the assay with PAK7; 0% in the assay with PCTK1. Besides, the “%Inh” value turned out to be 3% in the assay on PCTK2; 0% in the assay on PCTK3; 0% with PDGFRA; 0% in the assay on PDGFRB; 4% in the assay with PDPK1; 7% in the assay on PFTAIRE2. The “%Inh” value with PFTK1 and in the assay with PHKG1 was 0% each time.
